Test results as given in paper PMC3878334.
No constants are given. Whether binding was seen depends on the method and setting. Binding seen in cells or lysates may run through a third protein. Some entries that bind do so weakly or less than the wild type.

Protein sequences, listed by entry. Tags and fused reporters are not part of them.
UniProt Q9JLM9: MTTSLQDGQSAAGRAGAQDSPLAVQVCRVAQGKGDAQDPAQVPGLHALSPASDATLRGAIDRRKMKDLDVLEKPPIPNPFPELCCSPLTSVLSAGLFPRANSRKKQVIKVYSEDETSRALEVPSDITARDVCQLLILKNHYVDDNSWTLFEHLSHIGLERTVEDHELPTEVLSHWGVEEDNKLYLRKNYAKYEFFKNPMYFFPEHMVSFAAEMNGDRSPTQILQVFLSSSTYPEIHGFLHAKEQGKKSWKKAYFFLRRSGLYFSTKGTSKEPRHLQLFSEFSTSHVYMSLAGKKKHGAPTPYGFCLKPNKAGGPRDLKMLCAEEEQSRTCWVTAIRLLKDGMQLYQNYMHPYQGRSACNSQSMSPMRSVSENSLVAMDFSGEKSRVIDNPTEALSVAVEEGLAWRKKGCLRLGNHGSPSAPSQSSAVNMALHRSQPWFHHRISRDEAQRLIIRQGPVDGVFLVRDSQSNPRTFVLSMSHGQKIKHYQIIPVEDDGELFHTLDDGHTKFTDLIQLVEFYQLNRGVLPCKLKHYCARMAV

Tests used:
[1] = molecular target: GST-vSrc-SH2 fusion protein (UniProt P00524); assay: pull-down; as a2, but retinal lysates of dark-adapted wild-type mice; only the target purified
[2] = molecular target: GST-vSrc-SH2 fusion protein (UniProt P00524); assay: pull-down; GST-vSrc-SH2 on glutathione-Sepharose 4B incubated overnight at 4°C with retinal lysates of light-adapted wild-type mice (also Grb14-/-, Rpe65-/-, and control versus Ins2Akita mice); washed three times in PBS; blots with anti-PY99 and anti-Grb14; only the target purified
[3] = molecular target: GST-vSrc-SH2 fusion protein (UniProt P00524); assay: pull-down; solubilized rod outer segment proteins of light-adapted rats (LROS) incubated with GST-vSrc-SH2 for 2 h; blots with anti-PY99 and anti-Grb14; only the target purified
[4] = molecular target: GST-vSrc-SH2 fusion protein (UniProt P00524); assay: pull-down; GST-vSrc-SH2 on glutathione-Sepharose 4B incubated with retinal lysates of light-adapted rats (the legend says mice), not treated with phosphatase; blots with anti-PY99 and anti-Grb14; only the target purified
[5] = molecular target: GST-vSrc-SH2 fusion protein (UniProt P00524); assay: condition: only pull-downs treated with calf-intestinal phosphatase (CIP) for 30 min; pull-down; as a4, but the pull-downs were treated with calf-intestinal phosphatase (CIP) for 30 min and washed twice in wash buffer before the blot; only the target purified

Substance: Grb14, endogenous in mouse retina (from UniProt Q9JLM9 1-538)
- binding [1]: no binding (condition: dark-adapted retinas)
- binding [2]: binds

Substance: Grb14, endogenous in rat retina and rod outer segments (from UniProt O88900 1-538)
- binding [3]: binds
- binding [4]: binds
- binding [5]: no binding
